Numbering of substitutions follows the chain as printed; changes in the protein carry UniProt numbers. This is one part of the list.
T1: RBFOX1 RRM RbFoxmut (Fox-RRM*) (Homo sapiens, UniProt Q9NWB1 109-208, R118D;E147R;N151S;E152T)
T1 sequence: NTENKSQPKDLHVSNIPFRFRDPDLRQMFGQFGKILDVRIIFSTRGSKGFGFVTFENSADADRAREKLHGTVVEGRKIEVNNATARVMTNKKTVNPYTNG

B1: AUCUCCA (DNA:RNA)
RNA: GGGAGACCGGAAUUCAGAUUGUCCAUCUCCAUUAAAUCCCGUCGUAGCCACCA
DNA 1: CAATCTGAATTCCGGTCTCCC
DNA 2: TGGTGGCTACGACGGGATT
B2: GUACCAG (DNA:RNA)
RNA: B1 RNA with A25G, C27A, U28C, C30A, A31G
DNA 1: CAATCTGAATTCCGGTCTCCC
DNA 2: TGGTGGCTACGACGGGATT
B3: GCCCGUU (DNA:RNA)
RNA: B1 RNA with A25G, U26C, U28C, C29G, C30U, A31U
DNA 1: CAATCTGAATTCCGGTCTCCC
DNA 2: TGGTGGCTACGACGGGATT
B4: GCUAUUC (DNA:RNA)
RNA: GGGAGACCGGAAUUCAGAUUGUCCGCUAUUCUUAAAUCCCGUCGUAGCCACCA
DNA 1: CAATCTGAATTCCGGTCTCCC
DNA 2: TGGTGGCTACGACGGGATT
B5: CGGACCU (DNA:RNA)
RNA: B1 RNA with A25C, U26G, C27G, U28A, A31U
DNA 1: CAATCTGAATTCCGGTCTCCC
DNA 2: TGGTGGCTACGACGGGATT
B6: UAAAAAA (DNA:RNA)
RNA: B1 RNA with A25U, U26A, C27A, U28A, C29A, C30A
DNA 1: CAATCTGAATTCCGGTCTCCC
DNA 2: TGGTGGCTACGACGGGATT
B7: AACGGGC (DNA:RNA)
RNA: B1 RNA with U26A, U28G, C29G, C30G, A31C
DNA 1: CAATCTGAATTCCGGTCTCCC
DNA 2: TGGTGGCTACGACGGGATT
B8: GUUUGUA (DNA:RNA)
RNA: B1 RNA with A25G, C27U, C29G, C30U
DNA 1: CAATCTGAATTCCGGTCTCCC
DNA 2: TGGTGGCTACGACGGGATT
B9: GUGCGAU (DNA:RNA)
RNA: B1 RNA with A25G, C27G, U28C, C29G, C30A, A31U
DNA 1: CAATCTGAATTCCGGTCTCCC
DNA 2: TGGTGGCTACGACGGGATT
B10: GAGCGAG (DNA:RNA)
RNA: B4 RNA with C26A, U27G, A28C, U29G, U30A, C31G
DNA 1: CAATCTGAATTCCGGTCTCCC
DNA 2: TGGTGGCTACGACGGGATT
B11: ACAUAAA (DNA:RNA)
RNA: B1 RNA with U26C, C27A, C29A, C30A
DNA 1: CAATCTGAATTCCGGTCTCCC
DNA 2: TGGTGGCTACGACGGGATT
B12: UGUAAUA (DNA:RNA)
RNA: B4 RNA with G25U, C26G, U29A, C31A
DNA 1: CAATCTGAATTCCGGTCTCCC
DNA 2: TGGTGGCTACGACGGGATT
B13: AUCUCAG (DNA:RNA)
RNA: B1 RNA with C30A, A31G
DNA 1: CAATCTGAATTCCGGTCTCCC
DNA 2: TGGTGGCTACGACGGGATT
B14: ACGCUGG (DNA:RNA)
RNA: B4 RNA with G25A, U27G, A28C, U30G, C31G
DNA 1: CAATCTGAATTCCGGTCTCCC
DNA 2: TGGTGGCTACGACGGGATT
B15: AUCUAUU (DNA:RNA)
RNA: B1 RNA with C29A, C30U, A31U
DNA 1: CAATCTGAATTCCGGTCTCCC
DNA 2: TGGTGGCTACGACGGGATT
B16: UUGGGUU (DNA:RNA)
RNA: B1 RNA with A25U, C27G, U28G, C29G, C30U, A31U
DNA 1: CAATCTGAATTCCGGTCTCCC
DNA 2: TGGTGGCTACGACGGGATT
B17: UAACGUA (DNA:RNA)
RNA: B1 RNA with A25U, U26A, C27A, U28C, C29G, C30U
DNA 1: CAATCTGAATTCCGGTCTCCC
DNA 2: TGGTGGCTACGACGGGATT
B18: CUCCUGC (DNA:RNA)
RNA: B1 RNA with A25C, U28C, C29U, C30G, A31C
DNA 1: CAATCTGAATTCCGGTCTCCC
DNA 2: TGGTGGCTACGACGGGATT
B19: GAUCUAC (DNA:RNA)
RNA: B4 RNA with C26A, A28C, U30A
DNA 1: CAATCTGAATTCCGGTCTCCC
DNA 2: TGGTGGCTACGACGGGATT
B20: UUGAGGA (DNA:RNA)
RNA: B1 RNA with A25U, C27G, U28A, C29G, C30G
DNA 1: CAATCTGAATTCCGGTCTCCC
DNA 2: TGGTGGCTACGACGGGATT
B21: CGUUAUA (DNA:RNA)
RNA: B1 RNA with A25C, U26G, C27U, C29A, C30U
DNA 1: CAATCTGAATTCCGGTCTCCC
DNA 2: TGGTGGCTACGACGGGATT
B22: CUGUUCG (DNA:RNA)
RNA: B1 RNA with A25C, C27G, C29U, A31G
DNA 1: CAATCTGAATTCCGGTCTCCC
DNA 2: TGGTGGCTACGACGGGATT
B23: CAGCCGU (DNA:RNA)
RNA: B1 RNA with A25C, U26A, C27G, U28C, C30G, A31U
DNA 1: CAATCTGAATTCCGGTCTCCC
DNA 2: TGGTGGCTACGACGGGATT
B24: CUUGGUA (DNA:RNA)
RNA: B1 RNA with A25C, C27U, U28G, C29G, C30U
DNA 1: CAATCTGAATTCCGGTCTCCC
DNA 2: TGGTGGCTACGACGGGATT
B25: CUAAAGU (DNA:RNA)
RNA: B1 RNA with A25C, C27A, U28A, C29A, C30G, A31U
DNA 1: CAATCTGAATTCCGGTCTCCC
DNA 2: TGGTGGCTACGACGGGATT
B26: UCUCCGC (DNA:RNA)
RNA: B4 RNA with G25U, A28C, U29C, U30G
DNA 1: CAATCTGAATTCCGGTCTCCC
DNA 2: TGGTGGCTACGACGGGATT
B27: CCCGUGU (DNA:RNA)
RNA: B4 RNA with G25C, U27C, A28G, U30G, C31U
DNA 1: CAATCTGAATTCCGGTCTCCC
DNA 2: TGGTGGCTACGACGGGATT
B28: CGACACU (DNA:RNA)
RNA: B1 RNA with A25C, U26G, C27A, U28C, C29A, A31U
DNA 1: CAATCTGAATTCCGGTCTCCC
DNA 2: TGGTGGCTACGACGGGATT
B29: AGACGAC (DNA:RNA)
RNA: B1 RNA with U26G, C27A, U28C, C29G, C30A, A31C
DNA 1: CAATCTGAATTCCGGTCTCCC
DNA 2: TGGTGGCTACGACGGGATT
B30: AAUGAGC (DNA:RNA)
RNA: B4 RNA with G25A, C26A, A28G, U29A, U30G
DNA 1: CAATCTGAATTCCGGTCTCCC
DNA 2: TGGTGGCTACGACGGGATT
B31: CAUUAUA (DNA:RNA)
RNA: B1 RNA with A25C, U26A, C27U, C29A, C30U
DNA 1: CAATCTGAATTCCGGTCTCCC
DNA 2: TGGTGGCTACGACGGGATT

biological target: T1, RBFOX1 RRM RbFoxmut (Fox-RRM*); assay: EMSA; HiTS-Eq, 1 nM pool, 10 min; buffer printed only for the single-RNA assays: 10 mM Tris pH 7.5, 150 mM NaCl, 3.4 mM EDTA, 0.001% NP-40, 30 C; details: tags: His6 N-terminal (pET28a); label: 5' 32P
Procedure, shortened: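 Relative association constants, normalised to the cognate motif, were derived by comparing read counts of each RNA species with those of the control reaction. The RNA sequenced was the free fraction, separated by 8% native PAGE after a 10 min equilibration in 50 µL of 1 nM 5′-radiolabelled RNA (7 randomized nucleotides) with increasing concentrations of purified wild-type or mutant RbFox RRM.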

Binder	binding signal
B1	0.0926 KA relative to UGCAUGU
B2	0.115 KA relative to UGCAUGU
B3	0.087 KA relative to UGCAUGU
B4	0.0659 KA relative to UGCAUGU
B5	0.0739 KA relative to UGCAUGU
B6	0.0756 KA relative to UGCAUGU
B7	0.0864 KA relative to UGCAUGU
B8	0.446 KA relative to UGCAUGU
B9	0.0899 KA relative to UGCAUGU
B10	0.109 KA relative to UGCAUGU
B11	0.146 KA relative to UGCAUGU
B12	0.0977 KA relative to UGCAUGU
B13	0.136 KA relative to UGCAUGU
B14	0.107 KA relative to UGCAUGU
B15	0.106 KA relative to UGCAUGU
B16	0.148 KA relative to UGCAUGU

Binder	binding signal
B17	0.128 KA relative to UGCAUGU
B18	0.0939 KA relative to UGCAUGU
B19	0.0679 KA relative to UGCAUGU
B20	0.0773 KA relative to UGCAUGU
B21	0.121 KA relative to UGCAUGU
B22	0.274 KA relative to UGCAUGU
B23	0.0905 KA relative to UGCAUGU
B24	0.198 KA relative to UGCAUGU
B25	0.0851 KA relative to UGCAUGU
B26	0.077 KA relative to UGCAUGU
B27	0.103 KA relative to UGCAUGU
B28	0.0552 KA relative to UGCAUGU
B29	0.0481 KA relative to UGCAUGU
B30	0.113 KA relative to UGCAUGU
B31	0.164 KA relative to UGCAUGU
